Laboratory results from PubChem BioAssay AID743286 (National Center for Advancing Translational Sciences (NCATS), 2014).
The campaign covered roughly 1,100 compounds. About 340 (31%) were called active. Inconclusive results, whose numbers are uncertain, are shown with a selection of clear calls. Calls follow the shape of the dose curve; as a rule, active = well fitted inhibition curve with a large enough effect; inconclusive = small, poorly fitted or top-dose-only effect; inactive = flat fitted curve, though single readings scatter. Where the call is inconclusive, the potency comes from a doubtful curve fit.

Target: Phosphatidylinositol 5-phosphate 4-kinase type-2 alpha (Homo sapiens) (UniProt P48426)
Assay: qHTS for Inhibitors of PI5P4K: Confirmation in Primary Assay; also: nearly all actives have a fitted effect of over 65% in size
Settings: PI5P4Kalpha enzyme, ADP-Glo luminescence, 60 min; series mostly up to 76.9 µM
Method in brief: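 ADP-Glo luminescence end-point quantifies ADP from 60-min room-temperature turnover of PI5P by PI5P4Kα. ATP 5 µM final; buffer 0.038 M HEPES pH 7.4, 0.28 mM EGTA, 0.1% CHAPS, 5% DMSO.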
Potency is read from the fitted curve at half-maximal effect; tags tell the direction and shape of the fitted curve.

UniProt P48426, sequence (P48426 whole entry, looked up): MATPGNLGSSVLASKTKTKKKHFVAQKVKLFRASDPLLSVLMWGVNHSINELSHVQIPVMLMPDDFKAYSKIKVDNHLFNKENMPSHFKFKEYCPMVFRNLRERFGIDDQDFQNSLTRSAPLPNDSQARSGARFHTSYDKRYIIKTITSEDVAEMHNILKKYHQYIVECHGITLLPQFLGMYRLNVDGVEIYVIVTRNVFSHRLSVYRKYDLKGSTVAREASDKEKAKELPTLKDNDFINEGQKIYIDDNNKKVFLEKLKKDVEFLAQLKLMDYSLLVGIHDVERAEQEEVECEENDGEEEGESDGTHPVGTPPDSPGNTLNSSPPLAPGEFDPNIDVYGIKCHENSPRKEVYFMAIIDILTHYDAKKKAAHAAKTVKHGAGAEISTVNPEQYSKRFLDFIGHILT

Question: With `CCCCn1c(N)c(N(CC(C)C)C(=O)c2cc(-c3ccco3)nc3ccccc23)c(=O)[nH]c1=O` as the compound, how does the Potency read?
Answer: The Potency was inconclusive: 17.8 µM [inhibitor, partial curve].

Question: Which Potency does the source give for `Cc1ccc(-n2c(=S)[nH]c3sc4c(c3c2=O)CCC4)cc1` here?
Answer: The Potency was inconclusive: 20 µM [inhibitor, partial curve].

Question: With `CC(=O)c1ccc(S(=O)(=O)Nc2cccc(-n3cnnn3)c2)cc1` as the compound, how does the Potency read?
Answer: Its Potency is inconclusive: 17.8 µM [inhibitor, partial curve].

Question: With `CCN(CC(=O)NC(C)(C)C)Cc1cc(=O)n2c(-c3ccccc3)csc2n1` as the compound, how does the Potency read?
Answer: Its Potency is inconclusive: 17.8 µM [inhibitor, partial curve].

Question: With `CCN(CC(=O)Nc1ccc(NC(C)=O)cc1)Cc1c(O)ccc2cc(Br)ccc12` as the compound, how does the Potency read?
Answer: Its Potency is active: 15.8 µM.

Question: Which Potency does the source give for `CC[C@]12c3[nH]c4cc(-c5ccco5)ccc4c3CCN1C(=O)[C@@H](CC(=O)NCCC1=CCCCC1)C[C@@H]2C(=O)N1CCN(C(=O)c2ccco2)CC1` here?
Answer: The Potency was “inactive”.

Question: `O=C(CSc1nc(-c2ccccc2)cc(=O)[nH]1)N1CCc2ccccc21` was tested. Which Potency did it give?
Answer: The Potency was “inactive”.

Question: For `C[C@@H]1C=C(C(=O)NCc2nc3ccccc3[nH]2)O[C@H](OCCCCO)C1`, which Potency is on record?
Answer: Its Potency is inconclusive: 39.8 µM [inhibitor, partial curve, poor fit].

Question: How did the Potency turn out when `Cc1noc(C)c1CCC(=O)N1CCCC(CCC(=O)NCc2ccc(F)c(F)c2)C1` (stereo not drawn) was run?
Answer: The Potency was “inactive”.

Question: How did the Potency turn out when `COCCn1c(SCC(=O)Nc2cccc(S(N)(=O)=O)c2)nc2cc(Cl)ccc2c1=O` was run?
Answer: The Potency was “inactive”.

Question: Which Potency does the source give for `O=C(CSc1nc2[nH]c(=O)cc(O)c2s1)Nc1ccc(Br)cc1` here?
Answer: The Potency was inconclusive: 22.4 µM [inhibitor, partial curve].

Question: `CC(C)NC(=O)c1ccc2c3n(nc2c1)-c1ccccc1CO3` was tested. Which Potency did it give?
Answer: Its Potency is inconclusive: 25.1 µM [inhibitor, partial curve].

Question: With `CCn1c(CC(=O)Nc2ccccc2F)nnc1SCC(=O)NC1CCCCC1` as the compound, how does the Potency read?
Answer: Its Potency is “inactive”.

Question: Which Potency does the source give for `CCc1nc2oc3ccccc3c(=O)c2c(=O)n1-c1ccc(C)cc1` here?
Answer: The Potency was inconclusive: 25.1 µM [inhibitor, partial curve].

Question: How did the Potency turn out when `Cc1ccc(-c2csc(NC(=O)Cc3ccc(F)cc3)n2)o1` was run?
Answer: The Potency was inconclusive: 12.6 µM [inhibitor, partial curve].

Question: With `O=C(Cc1cccs1)NCCc1csc(-c2ccccc2)n1` as the compound, how does the Potency read?
Answer: Its Potency is inconclusive: 39.8 µM [inhibitor, single point].

Question: `CCOC(=O)c1c(NS(=O)(=O)c2ccc(Br)cc2)sc2c1CCC2` was tested. Which Potency did it give?
Answer: Its Potency is inconclusive: 5.62 µM [inhibitor, full curve, poor fit].

Question: For `CC1(OC(=O)CCc2ccccc2)C(=O)C=C2C=C(c3ccc(C#N)cc3)N(Cc3ccco3)C=C2C1=O` (stereo not drawn), which Potency is on record?
Answer: The Potency was inconclusive: 14.1 µM [inhibitor, partial curve].
